PubChem BioAssay (NCATS)
Values joined by “and” are separate entries in the source; they are usually repeats but may differ in a detail not shown here. Identical values can stand only once. Inconclusive results, whose numbers are uncertain, are shown with a selection of clear calls. A potency beside an inconclusive call is a rough fit, not a confirmed value. Active and inactive are the calls of the source. The call rests on the fitted dose curve; in most records, active means well fitted cell-killing curve with a large enough effect; inconclusive means small, poorly fitted or top-dose-only effect, or effect the other way; inactive means no such curve, though single readings can be large or run the other way.

Assays:
[1] = Viability qHTS for spleen associated tyrosine kinase inhibitor (SYKi) naive MV4-11 cells (AID 1963823); details: MV4-11 AML viability, CellTiter-Glo luminescence, 72 h; viability (% of control): at 45 µM (top of the series); further: nearly all actives have a fitted effect of over 40% in size
Method in brief: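 Read-out: CellTiter-Glo luminescence. Exposure: 72 hr, 37 C, 5% CO2, 95% humidity. Cells: MV4-11 without SYK inhibitor history, 500/well, qHTS format.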

[2] = Viability qHTS for spleen associated tyrosine kinase inhibitor (SYKi) drug resistant MV4-11 cells (AID 1963824); further: nearly all actives have a fitted effect of over 35% in size
Method in brief: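 SYK-inhibitor-resistant MV4-11 AML cells were seeded at 500 per well onto compound and cultured 72 hours (37 °C, 5% CO2). CellTiter-Glo was then added, and after 10 min at room temperature, luminescence gave viability.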
Potency means the concentration at half of the fitted maximal effect; tags describe the fitted curve by direction and shape.

In the case of `O=C(O)c1ccccn1`, the Potency [1] is reported as “inactive” and the Potency [2] is reported as inconclusive: 2.11 µM [cytotoxic, full curve, poor fit].

In the case of `C[C@H]1O[C@@H](n2cc(F)c(=O)[nH]c2=O)[C@H](O)[C@@H]1O`, the Potency [1] is reported as active: 3.76 µM and active: 2.35 µM and the Potency [2] is reported as active: 2.11 µM and active: 1.05 µM.

In the case of `Cc1[nH]c2ccccc2c1CC(=O)N[C@@H](Cc1ccccc1)C(=O)N(C)c1ccccc1`, the Potency [1] is reported as inconclusive: 13 µM [cytotoxic, partial curve] and the Potency [2] is reported as inconclusive: 23.1 µM [cytotoxic, partial curve].

With `COc1ccc([C@H]2Cc3cccc(O)c3C(=O)O2)cc1` the Potency [1] was inconclusive: 18.4 µM [cytotoxic, single point] and the Potency [2] was inconclusive: 23.1 µM [cytotoxic, partial curve].

In the case of `C=C1C(=O)O[C@H]2[C@H]1[C@@H](OC(=O)C(C)CO)C[C@@]1(C)[C@H](O)CCC(=O)[C@H]21` (stereo not given in full), the Potency [1] is reported as inconclusive: 12.8 µM [cytotoxic, single point] and the Potency [2] is reported as inconclusive: 14.3 µM [cytotoxic, partial curve].

For `N#Cc1ccc2c(c1)CCN(CCC1CCC(NC(=O)c3ccnc4ccccc34)CC1)C2` (stereo not given), the Potency [1] was inconclusive: 6.51 µM [cytotoxic, partial curve] and the Potency [2] was active: 10.3 µM.

With `CC(C)=CCC[C@](C)(O[C@@H]1O[C@H](CO)[C@@H](O)[C@H](O)[C@H]1O)[C@H]1CC[C@]2(C)[C@@H]1[C@H](O)CC1[C@@]3(C)CC[C@H](O)C(C)(C)C3[C@@H](O[C@@H]3O[C@H](CO)[C@@H](O)[C@H](O)[C@H]3O[C@@H]3O[C@@H](C)[C@H](O)[C@@H](O)[C@H]3O)C[C@]12C` (stereo not given in full) the viability (% of control) [1] was inactive: 90.7% [at 9.25 µM] and the viability, % of control [2] was inactive: 105% [at 9.25 µM].

With `Cc1cn2c(n1)Cc1ccc(Cl)cc1C(c1ccc(N)cc1)=N2` the Potency [1] was active: 14.6 µM and the Potency [2] was active: 18.4 µM.

For `O=c1c2ccccc2nc2n1CCC2O` (stereo not given), the Potency [1] was “inactive” and the Potency [2] was inconclusive: 1.19 µM [cytotoxic, full curve, poor fit].

With `NS(=O)(=O)c1ccc(-n2nc(C(F)(F)F)cc2-c2ccc(Cl)cc2)cc1` the Potency [1] was inconclusive: 20.6 µM [cytotoxic, partial curve] and the Potency [2] was inconclusive: 16.4 µM [cytotoxic, partial curve].
